According to EPA's CvTdb concentration-time database:
The source gives many values for each of these; only a part stands here.

Legend:
Experiment in all cases: concentration in plasma after dosing
[1] = system: Rat; details: dosed: Oxazepam, 20 mg/kg, iv, Female, F344
[2] = system: Rat; details: dosed: Oxazepam, 20 mg/kg, iv, Female, F344; remark: listed apart in the source
[3] = system: Rat; details: dosed: Oxazepam, 400 mg/kg, oral, Female, F344
[4] = system: Rat; details: dosed: Oxazepam, 20 mg/kg, iv, Male, F344
[5] = system: Rat; details: dosed: Oxazepam, 20 mg/kg, iv, Female, F344; remark: listed apart in the source
[6] = system: Rat; details: dosed: Oxazepam, 400 mg/kg, oral, Male, F344
[7] = system: Rat; details: dosed: Oxazepam, 400 mg/kg, oral, Female, F344; remark: listed apart in the source
[8] = system: Rat; details: dosed: Oxazepam, 400 mg/kg, oral, Male, F344; remark: listed apart in the source
[9] = system: Rat; details: dosed: Oxazepam, 400 mg/kg, oral, Male, F344; remark: listed apart in the source
[10] = system: Rat; details: dosed: Oxazepam, 400 mg/kg, oral, Female, F344; remark: listed apart in the source
[11] = system: Rat; details: dosed: Oxazepam, 20 mg/kg, iv, Male, F344; remark: listed apart in the source
[12] = system: Rat; details: 1 h; dosed: Oxazepam; 20 mg/kg; iv; Female; F344
[13] = system: Rat; details: dosed: Oxazepam, 400 mg/kg, oral, Male, F344; remark: listed apart in the source
[14] = system: Rat; details: 1 h; dosed: Oxazepam; 20 mg/kg; iv; Male; F344
[15] = system: Rat; details: dosed: Oxazepam, 400 mg/kg, oral, Male, F344; remark: listed apart in the source
[16] = system: Rat; details: dosed: Oxazepam, 20 mg/kg, iv, Male, F344; remark: listed apart in the source
[17] = system: Rat; details: 2 h; dosed: Oxazepam; 20 mg/kg; iv; Female; F344
[18] = system: Rat; details: dosed: Oxazepam, 400 mg/kg, oral, Female, F344; remark: listed apart in the source
[19] = system: Rat; details: dosed: Oxazepam, 400 mg/kg, oral, Female, F344; remark: listed apart in the source
[20] = system: Rat; details: 2 h; dosed: Oxazepam; 20 mg/kg; iv; Male; F344
[21] = system: Rat; details: dosed: Oxazepam, 20 mg/kg, iv, Male, F344; remark: listed apart in the source
[22] = system: Rat; details: dosed: Oxazepam, 20 mg/kg, iv, Male, F344; remark: listed apart in the source
[23] = system: Rat; details: dosed: Oxazepam, 20 mg/kg, iv, Male, F344; remark: listed apart in the source
[24] = system: Rat; details: dosed: Oxazepam, 400 mg/kg, oral, Female, F344; remark: listed apart in the source
[25] = system: Rat; details: 2 h; dosed: Oxazepam; 20 mg/kg; iv; Male; F344; remark: listed apart in the source
[26] = system: Rat; details: dosed: Oxazepam, 20 mg/kg, iv, Female, F344; remark: listed apart in the source
[27] = system: Rat; details: dosed: Oxazepam, F344
[28] = system: Rat; details: dosed: Oxazepam, 20 mg/kg, iv, Female, F344; remark: listed apart in the source
[29] = system: Rat; details: dosed: Oxazepam, 20 mg/kg, iv, Female, F344; remark: listed apart in the source
[30] = system: Rat; details: dosed: Oxazepam, 20 mg/kg, iv, Female, F344; remark: listed apart in the source
[31] = system: Rat; details: dosed: Oxazepam, 400 mg/kg, oral, Male, F344; remark: listed apart in the source
[32] = system: Rat; details: dosed: Oxazepam, 20 mg/kg, iv, Female, F344; remark: listed apart in the source
[33] = system: Rat; details: dosed: Oxazepam, 20 mg/kg, iv, Male, F344; remark: listed apart in the source

O=C1Nc2ccc(Cl)cc2C(c2ccccc2)=NC1O (centres undefined) [Oxazepam]
Details | concentration in plasma [ng/mL]
[1], 2 min | 14800
[1], 3 h | 2550
[2], 1 h | 4840
[2], 8 h | 550
[3], 6 h | 5150
[3], 20 min | 1800
[4], 0.25 h | 7290
[4], 4 h | 520
[5], 0.25 h | 7860
[5], 4 h | 1150
[6], 2 h | 3350
[6], 18 h | 3420
[7], 3.5 h | 3550
[7], 26 h | 5340
[8], 6 h | 2650
[8], 20 min | 750
[9], 6 h | 2950
[9], 20 min | 1370
[10], 6 h | 5930
[10], 20 min | 1750
[11], 2 min | 12800
[11], 3 h | 1360
[13], 2 h | 2950
[13], 18 h | 1200
[15], 3.5 h | 5210
[15], 26 h | 2670
[16], 2 min | 11100
[16], 3 h | 1050
[18], 2 h | 3900
[18], 18 h | 1820
[19], 2 h | 5570
[19], 18 h | 9340
[21], 0.5 h | 5030
[21], 6 h | 300
[22], 0.25 h | 6750
[22], 4 h | 820
[23], 0.5 h | 5350
[23], 6 h | 280
[24], 3.5 h | 4080
[24], 26 h | 1660
[26], 0.5 h | 3670
[26], 6 h | 480
[28], 4 min | 8850
[28], 6 h | 600
[29], 2 min | 14700
[29], 3 h | 2540
[30], 2 h | 4330
[30], 10 h | 500
[31], 3.5 h | 4230
[31], 26 h | 6680
[32], 0.25 h | 7170
[32], 4 h | 1800
[33], 1 h | 3170
[33], 8 h | 300

Details | concentration in plasma [ng/mL]
[12] | 5410
[14] | 3620
[17] | 3620
[20] | 1700
[25] | 860

concentration in plasma [ng/mL], [27]
Details | Female | Male
0.25 h, 20 mg/kg, iv | 8020 | 6110
0.5 h, 20 mg/kg, iv | 6350 | 5200
1 h, 20 mg/kg, iv | 5900 | 4380
2 h, 20 mg/kg, iv | 3920 | 1570
2 h, 400 mg/kg, oral | 4120 | 3250
2 min, 20 mg/kg, iv | 13600 | 10800
3 h, 20 mg/kg, iv | 1640 | 1070
3.5 h, 400 mg/kg, oral | 3430 | 3760
4 h, 20 mg/kg, iv | 1230 | 690
6 h, 20 mg/kg, iv | 1050 | 300
6 h, 400 mg/kg, oral | 5080 | 4930
8 h, 20 mg/kg, iv | – | 310
10 h, 20 mg/kg, iv | 570 | –
18 h, 400 mg/kg, oral | 2100 | 2680
20 min, 400 mg/kg, oral | 1590 | 1260
26 h, 400 mg/kg, oral | 3730 | 3160
